# Inconclusive results and toxic doses are left out. The source holds more than one record for some entries. This list holds those alone. An entry can have further records. The records of an entry repeat one measurement in other runs, samples, wells, individuals or studies.
# System: L1210 leukemia ip in BDF1 mice, survival T/C
# Assay: NCI In Vivo Anticancer Drug Screen. Data for tumor model L1210 Leukemia (intraperitoneal) in B6D2F1 (BDF1) mice
# Settings: endpoint: mean survival time, higher = longer survival
smiles,measurement,setting,value
ClC(c1ccccc1)C1(Br)C=c2ccccc2=C1 (configuration not stated),T/C,"dose: 100.0 mg/kg/injection, schedule: Q04DX003 (ip), vehicle: Klucel (hydroxypropylcellulose) (HPC)",94 % of control and 171 % of control
CCOC(=O)C(Cc1ccc(N(CCCl)CCCl)cc1)NC=O (configuration not stated),T/C,"dose: 300.0 mg/kg/injection, schedule: Q01DX001 (ip), vehicle: carboxymethylcellulose (CMC)",114 % of control and 170 % of control
O=P(N1CCCC1)(N1CC1)N1CC1,T/C,"dose: 1.0 mg/kg/injection, schedule: Q01DX Z (ip), vehicle: saline",97 % of control and 184 % of control
O=C(Cl)c1cccc2c([N+](=O)[O-])cccc12,T/C,"dose: 50.0 mg/kg/injection, schedule: Q01DX001 (ip), vehicle: other","94 % of control, 106 % of control, 168 % of control"
CN(N=O)C(N)=O,T/C,"dose: 14.0 mg/kg/injection, schedule: Q01DX Z (sc), vehicle: saline",112 % of control and 163 % of control
same,T/C,"dose: 21.0 mg/kg/injection, schedule: Q01DX Z (sc), vehicle: saline",120 % of control and 166 % of control
Cc1ccc(S(=O)(=O)Cl)cc1C(=O)O,T/C,"dose: 50.0 mg/kg/injection, schedule: Q01DX001 (ip), vehicle: saline with Tween-80","87 % of control, 96 % of control, 152 % of control"

# Reference: PubChem BioAssay AID248 (DTP/NCI, 2004)
